# According to PubChem BioAssay AID1347044 (National Center for Advancing Translational Sciences (NCATS), 2019):
# Where “and” joins values, the source holds several entries; their conditions need not be identical. Equal values may be shown once. The list shows a part of the results. Further columns of the screen follow, without active or inactive calls. The list favours compounds with an active or inconclusive main result. The note in brackets gives the kind of curve behind each potency; many fits are weak.
# Experiment: Natriuretic polypeptide receptor (hNpr1) antagonism - Confirmation; further: nearly all actives have a fitted effect of over 70% in size
# Details: HEK293 hNpr1 cGMP GloSensor luminescence, ANP-stimulated; measured here: HEK-hNpr1 cytotoxicity, CellTiter-Glo
# Outline: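 HEK293 cells expressing hNpr1 and the pGS-40F GloSensor cGMP sensor, loaded with 2% GloSensor reagent for 2 h, then treated 30 min with compound at room temperature. Luciferase luminescence read before and 20 min after 0.1 nM hNppA stimulation.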
# Tags describe the fitted curve by direction and shape.
row,Structure (SMILES),CC50
1,Cc1ccc(-n2ncc3c2CCCC3NC(=O)c2cc(C(C)C)no2)cc1C (stereo unspecified),"19.3 µM [falling, partial curve]"
2,Cc1ccc(F)cc1CN1CCOc2cc([S+](=O)([O-])N(C)C)ccc2C1,"31.4 µM [falling, partial curve]"
3,COc1ccc(C2=NOC3(CCN([S+](=O)([O-])c4cccc(OC)c4)C3)C2)cc1 (stereo unspecified),"24.3 µM [falling, partial curve]"
4,O=C(c1ccccn1)N1CC(Oc2ccc(-c3noc(C4CC4)n3)cc2)C1,"21.7 µM [falling, partial curve]"
5,Cc1ccc(C)c(C(=O)N2CCC3(CC2)N=C(c2ccc(Cl)cc2)NO3)c1,"24.3 µM [falling, partial curve, poor fit]"
6,CN(C(=O)c1cnc2n[nH]c(-c3ccccc3)c2n1)c1ccccc1,"31.4 µM [falling, partial curve]"
7,O=C(COc1ccccc1)N1CCN(C(=O)c2nnn3c2COC(c2ccc(Cl)cc2)C3)CC1 (stereo unspecified),"21.7 µM [falling, partial curve]"
8,COc1cccc(-c2noc(CC3CCN(C(=O)COc4cccc(C)c4)CC3)n2)c1,"43.2 µM [falling, single point]"
9,O=C(Nc1ccc(Cl)cc1)c1nc2c(o1)CCN(CC1CC1)CC2,"62.7 µM [falling, single point]"
10,OCC1CN(c2ccncn2)CC12CCN(Cc1cc(F)c(F)c(F)c1)CC2 (stereo unspecified),"24.3 µM [falling, single point]"
11,CCOc1ccccc1C(=O)N1CCc2[nH]nc(-c3ccc(F)c(F)c3)c2C1,"34.3 µM [falling, single point]"
12,CCOC(=O)c1ccc(NC(=O)Cn2c(N3CCC(C)CC3)nc(C)cc2=O)cc1,"21.7 µM [falling, partial curve]"
13,CCC(O)C(=O)N1CCc2onc(-c3ccc(-c4ccccc4)cc3)c2C1 (stereo unspecified),"21.7 µM [falling, partial curve]"
14,O=C(c1ccc(Cl)cc1Cl)N1CCN(c2cc(-c3cccs3)[nH]n2)CC1,"21.7 µM [falling, partial curve]"
15,Cc1cc(CNC(=O)c2cc(C(C)C)nn2C)c2[nH]c(C)c(C)c2c1,"6.11 µM [falling, partial curve]"
16,CN(Cc1cccc2cnccc12)C(=O)c1cc(COc2ccc(F)cc2F)on1,"21.7 µM [falling, partial curve]"
17,Cc1nc(N2CCC(C(=O)NC3CCCCCCC3)CC2)cc(C(F)(F)F)n1,"10.9 µM [falling, partial curve]"
18,CCN(Cc1ccccc1)C(=O)CCC1CCN(S(=O)(=O)c2ccccc2)CC1,"10.9 µM [falling, partial curve]"
19,O=C(N[C@H]1CO[C@H]2[C@@H]1OC[C@@H]2n1nnnc1Oc1ccc2c(c1)OCO2)c1ccc(C(F)(F)F)cc1,"12.2 µM [falling, partial curve]"
20,CN(Cc1ccncc1)Cc1ccc(-c2ccccc2)cc1,"28 µM [falling, partial curve]"
21,O=C(c1ccc2[nH]ccc2c1)N1CCCN(c2cc(-c3ccc(Br)cc3)[nH]n2)CC1,"19.3 µM [falling, partial curve]"

row,Structure (SMILES),CC50
1,Cc1nc2cccnc2n1CC1CCCN(S(=O)(=O)c2ccc(CC(C)C)cc2)C1 (stereo unspecified),"21.7 µM [falling, partial curve]"
2,COc1ccc(C(=O)Nc2ccc(-c3noc([C@@H]4CCCN4Cc4ccc(C(F)(F)F)cc4)n3)cn2)cc1,"10.9 µM [falling, partial curve]"
3,Cc1cc(C(=O)N2CCC(F)(c3nc(-c4ccncc4)no3)CC2)n(C)n1,"24.3 µM [falling, partial curve]"
4,Cc1ccc(CN2CCc3nc(C(=O)Nc4ccc(Cl)cc4)oc3CC2)cc1,"28 µM [falling, partial curve]"
5,COc1ccc(-c2noc(CC3CCN(C(=O)COc4cccc(C)c4)CC3)n2)cc1,"21.7 µM [falling, partial curve, poor fit]"
6,COC(=O)c1cccc(NC(=S)N[C@@H]2C=C[C@@H](c3c(C)nn(-c4ccccc4[N+](=O)[O-])c3C)C2)c1,"24.3 µM [falling, single point]"
7,O=C(CCC1CCN(c2cc(NC3CC3)ncn2)CC1)N1CCN(c2ccccc2F)CC1,"21.7 µM [falling, partial curve]"
8,CN(C)c1cccc(C(=O)N2CCNc3cnc(Nc4cccc(C(F)(F)F)c4)nc3C2)c1,"24.3 µM [falling, partial curve]"
9,COc1ccc(-n2nc(C3CCN(Cc4cccc5ccccc45)CC3)[nH]c2=O)cc1,"27.3 µM [falling, single point]"
10,Cc1ccc(C(=O)N2CCC(Cc3nc(-c4ccccc4)no3)CC2)c(C)c1,"9.68 µM [falling, partial curve]"
11,COc1ccc(CCC(=O)N2CCC[C@H]2c2nc(-c3ccccc3Cl)no2)cc1,"43.2 µM [falling, single point]"
12,COc1ccc(C2Cn3nnc(C(=O)N4CCN(C(=O)c5cc(C)ccc5C)CC4)c3CO2)cc1 (stereo unspecified),"19.3 µM [falling, partial curve]"
13,COc1cccc(C(=O)N2CCCN(c3cc(-c4ccc(Cl)cc4)[nH]n3)CC2)c1OC,"13.7 µM [falling, partial curve]"
14,COC(=O)c1cccc(NC(=S)N[C@@H]2C=C[C@@H](c3c(C)nn(-c4ccc(F)cc4)c3C)C2)c1,"24.3 µM [falling, partial curve]"
15,CCOc1ccc(CC(=O)N2CCC(Cc3nc(-c4ccc(OC)cc4)no3)CC2)cc1,"4.32 µM [falling, full curve]"
16,COc1ccccc1Nc1ncc2c(n1)CN(C(=O)c1ccccc1)CCN2,"35.3 µM [falling, partial curve]"
17,CCNc1cc(N2CCC(CCC(=O)N3CCCN(c4ncccn4)CC3)CC2)ncn1,"19.3 µM [falling, partial curve]"
18,O=C(Cc1ccc2c(c1)OCO2)N1CCNc2cnc(Nc3cccc(F)c3)nc2C1,"31.4 µM [falling, partial curve]"
19,Cc1cc(N2CCCC(Cn3cc(Cc4ccccc4)nn3)C2)nc(N)n1 (stereo unspecified),"4.85 µM [falling, full curve]"
20,COc1ccc(C(=O)Nc2ccc(-c3noc([C@@H]4CCCN4CC4CCCCC4)n3)cn2)cc1,"6.85 µM [falling, partial curve]"
21,O=C(CCC1CCCC1)N1CCC(Cc2nc(C3CCOCC3)no2)CC1,"17.2 µM [falling, partial curve]"

row,Structure (SMILES),CC50
1,COc1ccccc1CC(=O)N1CCN(C(=O)c2nnn3c2COC(c2ccc(Cl)cc2)C3)CC1 (stereo unspecified),"19.3 µM [falling, partial curve]"
2,NC(=O)Cc1c[nH]c2ncc(-c3ccc(Oc4ccccc4)cc3)cc12,"19.8 µM [falling, partial curve]"
3,O=C(NCC1CC1)c1nc2c(o1)CCN(Cc1ccc(F)cc1F)CC2,"22.2 µM [falling, partial curve]"
4,O=c1[nH]c(C2CCCN(Cc3ccc(-c4cccs4)cc3)C2)nc2ccc(F)cc12 (stereo unspecified),"27.3 µM [falling, partial curve] and 34.3 µM [falling, single point]"
5,N#Cc1cccnc1N1CCC(CO)(Cc2ccccc2C(F)(F)F)CC1,"30.6 µM [falling, single point]"
6,COc1ccc(CN2C[C@H]3CN(Cc4ccc5c(c4)OCCO5)CCN3C2=O)cc1,"28 µM [falling, partial curve]"
7,N#Cc1ccc(CN2CCc3nc(C(=O)NCc4cccc(F)c4)oc3CC2)cc1,"39.6 µM [falling, partial curve]"
8,O=C(c1ccccc1)N1CCC2(CC1)N=C(c1ccc(Br)cc1)NO2,"34.3 µM [falling, single point]"
9,CN(C)C(=O)c1ccc(CC2CCN(C(=O)CC3CCCCC3)CC2)cc1,"21.7 µM [falling, partial curve]"
10,CC(=O)N1CCN(c2nc3c(s2)CC(C(=O)Nc2cc(F)cc(F)c2)CC3)CC1 (stereo unspecified),"19.3 µM [falling, partial curve]"
11,COc1ccc(C(=O)N2CCN(c3cc(-c4ccc(F)cc4)[nH]n3)CC2)cc1,"21.7 µM [falling, partial curve]"
12,CC(=O)Nc1ccc(S(=O)(=O)N[C@H]2CO[C@H]3[C@@H]2OC[C@@H]3Nc2nccc(-c3ccco3)n2)cc1,"24.3 µM [falling, partial curve]"
13,O=C(Nc1ccc(Cl)cc1)c1nc2c(o1)CCN(Cc1ccc3c(c1)CCO3)CC2,"25 µM [falling, partial curve]"
14,COc1ccc(C(=O)N2CCCN(c3cc(-c4ccccc4)[nH]n3)CC2)c(C)c1,"17.2 µM [falling, partial curve]"
15,Cc1ccc(S(=O)(=O)N2CCCC(CCC(=O)N3CCCCC3)C2)cc1 (stereo unspecified),"27.3 µM [falling, single point]"
16,Fc1ccc(-c2cnc3n2C[C@H](CNCc2ccccc2Cl)OC3)cc1,"35.3 µM [falling, partial curve]"
17,O=C(c1ccc(Cl)cc1)N1CCNc2cnc(Nc3ccccc3)nc2C1,"35.3 µM [falling, partial curve]"
18,O=C(Nc1ccc(Cl)cc1Cl)c1cn2c(n1)CN(C(=O)c1ccccc1)CC2,"21.7 µM [falling, partial curve]"
19,O=C(Cc1c[nH]c2ncc(-c3ccc(F)c(Cl)c3)cc12)NCc1cccnc1,"31.4 µM [falling, partial curve]"
